The text below walks through data of PMC9119685.

These are yes or no findings as the source states them, for the method shown. Binding seen in cells or lysates may run through a third protein.

For the experiment, the target named is tripartite-motif family member 25 (TRIM25), wild type (human), Q14258. In words: co-IP. The settings on record: remark: other sources report otherwise.

B1: zinc-finger antiviral protein, short splice variant (ZAP-S), Q7Z2W4-2 1-699 (protein)
chain: MADPEVCCFITKILCAHGGRMALDALLQEIALSEPQLCEVLQVAGPDRFVVLETGGEAGITRSVVATTRARVCRRKYCQRPCDNLHLCKLNLLGRCNYSQSERNLCKYSHEVLSEENFKVLKNHELSGLNKEELAVLLLQSDPFFMPEICKSYKGEGRQQICNQQPPCSRLHICDHFTRGNCRFPNCLRSHNLMDRKVLAIMREHGLNPDVVQNIQDICNSKHMQKNPPGPRAPSSHRRNMAYRARSKSRDRFFQGSQEFLASASASAERSCTPSPDQISHRASLEDAPVDDLTRKFTYLGSQDRARPPSGSSKATDLGGTSQAGTSQRFLENGSQEDLLHGNPGSTYLASNSTSAPNWKSLTSWTNDQGARRKTVFSPTLPAARSSLGSLQTPEAVTTRKGTGLLSSDYRIINGKSGTQDIQPGPLFNNNADGVATDITSTRSLNYKSTSSGHREISSPRIQDAGPASRDVQATGRIADDADPRVALVNDSLSDVTSTTSSRVDDHDSEEICLDHLCKGCPLNGSCSKVHFHLPYRWQMLIGKTWTDFEHMETIEKGYCNPGIHLCSVGSYTINFRVMSCDSFPIRRLSTPSSVTKPANSVFTTKWIWYWKNESGTWIQYGEEKDKRKNSNVDSSYLESLYQSCPRGVVPFQAGSRNYELSFQGMIQTNIASKTQKDVIRRPTFVPQWYVQQMKRGPE
For B1, the binding result was “no binding”.
